Measurements: PubChem BioAssay AID1508623 (National Center for Advancing Translational Sciences (NCATS), 2021)
The whole screen tested about 48,000 compounds, of which about 450 (0.94%) were called active. About 19% were inconclusive and are not listed. Calls come from the whole dose curve; as a rule, active = well fitted inhibition curve with a large enough effect; inconclusive = small, poorly fitted or top-dose-only effect; inactive = no such curve, though single readings can be large or run the other way. The list shows a part of the results.

Assay: Primary qHTS for Identification of Small Molecule Inhibitors of Huntingtin Promoter Activity; note: nearly all actives have a fitted effect of over 50% in size
Conditions: HEK293 HTT promoter firefly luciferase reporter (activity 0% = vehicle and -100% = no light), 24 h; series mostly up to 57.5 µM; activity change, negative = inhibition: at the top concentration
Procedure, shortened: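 Firefly luciferase readout (Dual-Glo, 10 min RT) after 24 h, 37 °C compound exposure (final up to 57.5 uM) of HEK293 reporter cells cultured 24 h beforehand; PTC124 at 50 uM final as control inhibitor; activity scaled vehicle 0%, zero RLU -100%.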

Compound	activity change, negative = inhibition
CCC(C(=O)N1CCN(c2ccccc2)CC1)n1nc(C)c2sc3ccccc3c2c1=O (configuration not stated)	inactive: -5.72%
COc1cccc(C2=CC(c3ccccc3F)n3c(nc4ccccc43)N2)c1 (configuration not stated)	inactive: 24.5%
CCOc1ccc(N2CC(c3nc4ccccc4n3CCOc3ccc(CC)cc3)CC2=O)cc1 (configuration not stated)	inactive: -16.2%
Cc1cc(C)cc(NC(=O)Cn2c3ncccc3c(=O)n2-c2ccc(C)c(C)c2)c1	inactive: -24.2%
O=C(NCc1ccccc1)c1ccc2c(c1)nc1n2CCCCC1	inactive: 18.7%
Cc1ccc(CSc2ncc(Cl)c(C(=O)Nc3sc4c(c3C(N)=O)CCCC4)n2)cc1	inactive: -7.31%
O=C(Cn1cnc2nc3c(cc2c1=O)CCCC3)N1CCN(c2ccccc2)CC1	inactive: -11.4%
Cc1cccc(C#Cc2ccccc2)n1	inactive: -2.33%
Cc1cccc(N2CCN(Cc3nnc(-c4ccc5c(c4)OCO5)o3)CC2)c1C	inactive: -8.95%
CCc1nn2c(=O)cc(COc3ccc(/C=C(\C#N)C(=O)Nc4ccc(C)cc4)cc3)nc2s1	inactive: -6.47%
O=C(Cn1c(=O)c2cccn2c2ccc(F)cc21)N1CCN(c2ccccc2)CC1	inactive: -2.72%
CCc1ccc(NC(=O)Cn2c(=O)n(CC3CCCO3)c(=O)c3cc(OC)c(OC)cc32)cc1 (configuration not stated)	inactive: -5.66%
COc1ccc(NC(=O)Nc2ccccc2OCc2cc(=O)n3ccccc3n2)c(OC)c1	inactive: 4.16%
O=C(CN1C(=O)C2CCCCN2c2ccc(C(=O)N3CCCC3)cc21)NCc1cccc(F)c1 (configuration not stated)	inactive: -4.28%
C[C@H](O)C(=O)Nc1c(I)c(C(=O)NC(CO)CO)c(I)c(C(=O)NC(CO)CO)c1I	inactive: 13%
CCN(CC)c1ccc(NC(=O)CN2C(=O)c3cccnc3Sc3ccccc32)c(C)c1	inactive: 21%
CC(=O)N1CCc2c(sc3c2c(=O)n(CCc2ccccc2)c(=O)n3Cc2cccc(C)c2)C1	inactive: -25%
O=c1c(=O)n(Cc2c(F)cccc2Cl)ccn1Cc1ccccc1	inactive: -15.1%
CC(C)NC(=O)Cn1nc(N2CCN(c3ccccc3)CC2)ccc1=O	inactive: -1.39%
CCOc1cc(C2C(C(=O)OC)=C(C)NC3=C2C(=O)c2ccccc23)c(Br)cc1O (configuration not stated)	inactive: -29.7%
Cc1ccc(-c2c3c(=O)n(C)c(=O)n(C)c3cn2-c2cc(C)ccc2O)cc1	inactive: -19.6%
COc1ccc(N2CCN(C3C(=O)c4ccccc4N3C(C)=O)CC2)cc1 (configuration not stated)	inactive: -29.5%
COc1cccc(NC(=O)Cn2c(=O)n(CC(=O)NCCc3ccccc3)c(=O)c3sccc32)c1	inactive: -11%
Cc1c(Cl)cccc1NC(=O)CSc1nc(=O)n(Cc2cccnc2)c2c1CCC2	inactive: 5.6%

Compound	activity change, negative = inhibition
COC(=O)C1CCN(C(c2ccccc2)c2sc3nc(-c4ccco4)nn3c2O)CC1 (configuration not stated)	inactive: -7.79%
O=C1CC(c2nc(-c3ccccc3)no2)CN1c1ccc2c(c1)OCCO2 (configuration not stated)	inactive: -12.7%
Cc1ccc(Cn2cc(S(=O)(=O)c3ccc(C)cc3)c(=O)c3cc(F)c(N4CCCC4)cc32)cc1	inactive: 5.5%
COc1ccc2c(c1)c1c(c(=O)n(Cc3ccccc3)c(=O)n1CC(=O)Nc1ccc(C)cc1C)n2C	inactive: -11.4%
O=C(Nc1nnc(S(=O)(=O)N2CCCCCC2)s1)c1ccccc1Br	inactive: -11.7%
c1ccc(CCNc2nc(-c3ccccc3)cs2)cc1	inactive: 30.9%
Cc1ccc(NC(=O)C2CCCN(S(=O)(=O)c3c(C)n[nH]c3C)C2)cc1C (configuration not stated)	inactive: -14.5%
CCn1cc2nc(SCc3ccc(F)cc3)n(Cc3ccc(Cl)cc3)c(=O)c2n1	inactive: -2.43%
CCCS(=O)(=O)N1CC(=O)N(c2ccc(Cl)cc2)C(C)(C(=O)NC2CCCC2)C1 (configuration not stated)	inactive: 6.13%
CC(=O)Nc1ccc(Nc2nnc(-c3ccc(C)c(S(N)(=O)=O)c3)c3ccccc23)cc1	inactive: -11.8%
COCCn1c(SCC(=O)Nc2ccc(C(F)(F)F)cc2)nc2c([nH]c3ccccc32)c1=O	inactive: -13.4%
O=C(Nc1ccc(S(=O)(=O)N(Cc2ccccc2)c2ccccc2)cc1)c1ccc([N+](=O)[O-])cc1	inactive: -22.2%
O=C(NCc1ccc2c(c1)CCN2C(=O)c1ccccc1)c1ccco1	inactive: -12.5%
Cc1ccc(NC(=O)C(=O)NCCc2csc3nc(-c4ccccc4C)nn23)cc1Cl	inactive: -9.51%
O=C(NCc1ccccc1Cl)c1ccc(NC(=O)N2CCSc3ncccc32)cc1	inactive: -19.3%
CCOC(=O)c1cc(S(=O)(=O)N2CCN(c3ccc(F)cc3)CC2)[nH]n1	inactive: -16.4%
CCCN(CCC)CCNC(=O)C1CCCN(S(=O)(=O)c2cccc3nsnc23)C1 (configuration not stated)	inactive: -1.33%
CCCCCOC(=O)c1ccc(OC(=O)c2sc3ncn(Cc4cccc(F)c4)c(=O)c3c2C)cc1	inactive: 0.351%
Cc1nc(SCc2ccc(Cl)cc2)c(C#N)c(C)c1Cl	inactive: 20.5%
CC(C)CC(=O)N[C@H](C(=O)N[C@H](C(=O)N[C@@H](CC(C)C)[C@@H](O)CC(=O)N[C@@H](C)C(=O)N[C@@H](CC(C)C)[C@@H](O)CC(=O)O)C(C)C)C(C)C	inactive: 6.23%
COc1ccc(OC)c(NC(=O)N2CCC(CN3CCCCC3)CC2)c1	inactive: 2.15%
CCOC(=O)c1cnc2ccc(OCC)cc2c1Nc1cc(Cl)c(OC)cc1OC	inactive: -5.77%
Cc1ccc(C)c(OC(=O)CSc2nnc(-c3ccc4c(c3)OCO4)o2)c1	inactive: 7.52%
